# Measurements reported in PMC4336329 (PLoS ONE, 2015).
# About 14,000 (4.5%) of roughly 310,000 compounds showed an effect of 50% or more. Effects have a minus sign here. The list shows a part of the results.
# Target: human ether-à-go-go-related gene (hERG) potassium channel (human, UniProt Q12809)
# Assay: primary screen, population patch clamp on CHO cells stably expressing hERG
# 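Further: peak tail current of the secondary pulse compared with the same well before compound.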
# human ether-à-go-go-related gene (hERG) potassium channel, sequence (Q12809 whole entry, looked up): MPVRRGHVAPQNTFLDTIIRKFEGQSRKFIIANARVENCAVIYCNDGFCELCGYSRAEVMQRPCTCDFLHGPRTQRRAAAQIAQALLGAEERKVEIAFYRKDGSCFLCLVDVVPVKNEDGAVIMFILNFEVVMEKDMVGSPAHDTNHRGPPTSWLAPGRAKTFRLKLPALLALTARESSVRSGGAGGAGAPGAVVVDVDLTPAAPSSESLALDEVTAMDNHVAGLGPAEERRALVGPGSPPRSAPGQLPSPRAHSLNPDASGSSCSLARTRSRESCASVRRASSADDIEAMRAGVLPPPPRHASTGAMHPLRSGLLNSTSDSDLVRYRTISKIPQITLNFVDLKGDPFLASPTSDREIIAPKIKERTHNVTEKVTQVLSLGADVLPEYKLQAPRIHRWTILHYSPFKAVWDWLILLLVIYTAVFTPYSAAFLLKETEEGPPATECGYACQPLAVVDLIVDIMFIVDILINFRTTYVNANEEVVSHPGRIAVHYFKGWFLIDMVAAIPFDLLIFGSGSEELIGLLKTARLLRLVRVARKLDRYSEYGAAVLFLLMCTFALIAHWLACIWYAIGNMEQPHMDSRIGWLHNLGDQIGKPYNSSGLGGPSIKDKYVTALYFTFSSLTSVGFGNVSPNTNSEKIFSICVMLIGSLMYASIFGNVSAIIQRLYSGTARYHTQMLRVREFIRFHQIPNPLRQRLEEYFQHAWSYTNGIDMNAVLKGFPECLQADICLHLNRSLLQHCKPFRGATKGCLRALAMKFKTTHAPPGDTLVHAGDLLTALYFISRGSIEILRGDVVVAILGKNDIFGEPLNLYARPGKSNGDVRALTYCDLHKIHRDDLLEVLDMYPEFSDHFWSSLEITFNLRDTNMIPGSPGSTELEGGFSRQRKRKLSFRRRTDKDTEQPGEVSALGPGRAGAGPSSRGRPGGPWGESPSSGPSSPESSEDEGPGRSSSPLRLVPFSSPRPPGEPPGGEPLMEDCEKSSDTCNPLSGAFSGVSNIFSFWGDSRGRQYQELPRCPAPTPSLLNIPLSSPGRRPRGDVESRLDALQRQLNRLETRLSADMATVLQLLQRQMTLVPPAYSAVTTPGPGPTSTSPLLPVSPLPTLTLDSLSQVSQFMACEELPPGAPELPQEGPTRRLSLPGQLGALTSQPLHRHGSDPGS
row,Compound,"hERG current change (%, negative = inhibition) at 10uM [%]"
1,CC1(C)CC(O)C(CCC(O)c2ccccc2)C(C)(C)N1 (centres unmarked),15.9
2,CC(=O)O/N=C(\N)Cc1ccc(-c2csnn2)cc1,-0.358
3,O=C(COC(=O)COc1ccc(Cl)cc1)NC1CCCC1,7.09
4,C=COCCNC(=S)Nc1cccc(Cl)c1,4.4
5,Cc1cc(C)cc(NC(=S)NCCN2CCOCC2)c1,-1.78
6,Cn1c(=O)[nH]c(=O)c2c1nc(Br)n2CCSc1ncccn1,7.96
7,CCCCNC(=O)c1ccc(C)c(NC(=O)C2=C(C)OCCS2)c1,10.7
8,O=C(NCC1CCN(C(=O)c2ccc([N+](=O)[O-])cc2)CC1)c1ccc([N+](=O)[O-])cc1,-71.3
9,CCOC(=O)N/N=C\C=C\c1ccco1,6.25
10,Cc1cccc(-c2nnc(SCc3nc4ccccc4[nH]3)n2Cc2ccco2)c1,-48.8
11,Cc1nn(-c2ccccc2)c(-n2cccc2)c1C(=O)O,17.3
12,CCCNC(=O)c1cnc(Sc2ncc(C(F)(F)F)cc2Cl)n1C,-6.91
13,COc1cc(NC(=O)CN2C(=O)COc3ccc(S(=O)(=O)N4CCCCC4)cc32)cc(OC)c1,-4.81
14,COC(=O)c1cc(OC)c(OC)cc1NC(=O)Cn1nnc(-c2ccccc2Cl)n1,-34.5
15,CC(=O)N(CCP(=O)(c1ccccc1)c1ccccc1)Cc1ccco1,-4.55
16,O=C(NCCO)C(=O)NCC(c1ccc2c(c1)OCO2)N1CCN(c2ccc(F)cc2)CC1 (centres unmarked),-0.454
17,Cc1ccc(NC(=O)CN2CCN(c3ccccn3)CC2)c(Cl)c1,-1.57
18,CC1CCN(S(=O)(=O)c2ccc(Oc3ccc([N+](=O)[O-])cc3)cc2)CC1,-21.7
19,CCN(CC(=O)NC(=O)NCc1ccccc1)CC(=O)Nc1cc(Cl)ccc1C,-21.9

row,Compound,"hERG current change (%, negative = inhibition) at 10uM [%]"
1,COc1cccc(/C=C/C(=O)OC(C)C(=O)Nc2c(C)n(C)n(-c3ccccc3)c2=O)c1 (centres unmarked),-7.55
2,CCCCn1c(N)c(N(CC)C(=O)CSc2nnc(-c3ccco3)n2CC)c(=O)[nH]c1=O,8.75
3,Cc1cc(=O)c(C(=O)O)nn1-c1ccccc1F,9.89
4,O=C(Cc1n[nH]c(=O)c2ccccc12)N/N=C/c1cc2c(cc1Cl)OCO2,26.5
5,CCOCCCn1cnc2c(c1=O)c1nc3ccccc3nc1n2-c1ccc(C)cc1,-25.1
6,Cc1nc2ccc(S(=O)(=O)NCC(=O)N3CCc4ccccc4C3)cc2s1,0.862
7,CC(=O)c1ccc(N2CCN(C(=O)C3CCCN(c4ncnc5c4nc4n5CCCCC4)C3)CC2)cc1 (centres unmarked),-75.4
8,Cc1noc(C)c1COC(=O)c1cc2ccccc2cc1O,2.63
9,CCCN1CNC(=S)N(CC2CCCO2)C1 (centres unmarked),5.19
10,Cc1cccc(C(=O)N[C@H](C(=O)NCCc2ccc(S(N)(=O)=O)cc2)C(C)C)c1,0.0238
11,Clc1ccc(Nc2ccccc2)nn1,19.6
12,CCCc1nnc(SCC(=O)NC2CCCCC2)n1CCOC,8.59
13,CC(C)CCNC(=O)CN(C(=O)Cn1nnc(-c2ccc(F)cc2)n1)C1CCCC1,6.25
14,CCOC(=O)N1CCN(C(=O)CN(CC)S(=O)(=O)c2cc(C)ccc2OC)CC1,-5.37
15,CCOC(=O)C1CCN(C(=O)Cn2nc(C)n3c(cc4cc(F)ccc43)c2=O)CC1,-42.1
16,COc1cc(/C=N/NC(=O)C[n+]2ccccc2)cc(OC)c1OC.[Cl-],3.34
17,Cc1cn([C@@H](CCCCN)C(=O)NCCCCCCCCCCC(=O)N2CCNCC2)nn1,-2.33
18,O=c1oc2ccccc2cc1-c1cn2cccnc2n1,1.91
19,CCCCOC(=O)C1C2C=CC3(CN(CCc4ccccc4)C(=O)C13)O2 (centres unmarked),-3.74

row,Compound,"hERG current change (%, negative = inhibition) at 10uM [%]"
1,COc1ccc(CN2CCCC(CNC(=O)c3ccc(F)cc3)C2)c(C)c1C (centres unmarked),-75.5
2,COc1ccc(C(=O)NC2CC2)cc1OC1CCN(Cc2ccccc2O)CC1,-102
3,CC(C)/C=C/C(=O)N1CCC(N2CCC(C(=O)N3CCOCC3)CC2)CC1,11
4,COC(=O)CCCCCNC(=S)Nc1ccc2[nH]c(=O)[nH]c2c1,10.7
5,CC(=O)O[C@@H]1[C@H]2[C@@H](C[C@@H](C)[C@@H]3C=CC(=O)[C@@]13C)OC(=O)[C@@H]2C,0.325
6,CCOC(=O)c1cc(NC(=O)c2ccccc2)c(=O)n2c1oc1ccccc12,7.77
7,O=c1oc2ccccc2nc1/C=C(O)/C=C/c1ccc(F)cc1,12.8
8,C=CCn1c(O)c(N=Nc2ccccc2O)c2ccccc21,6.19
9,Cl.O=C(O)CC1NCCc2ccccc21 (centres unmarked),10.2
10,O=C(Nc1ccccc1N1CCCCC1)c1ccc(-c2cc(Cl)ccc2Cl)o1,21.5
11,N#CC1=C(N)OC2=C(C(=O)CCC2)C1c1cc2c(cc1Br)OCO2 (centres unmarked),9.92
12,O=C(Cc1ccccn1)c1ccc(F)cc1,10.1
13,COCCCNC(=S)NNC(=O)c1cc(C2CC2)nc2ccccc12,14.9
14,O=C(CCN1C(=O)c2cccc([N+](=O)[O-])c2C1=O)Nc1nccs1,13.6
15,CC(C)(C)NC(=O)C(c1ccncc1)N(C(=O)c1csnn1)C1CC1 (centres unmarked),6.94
16,COC(=O)C1=C(c2ccc(F)cc2F)C[C@@H]2CC[C@H]1N2C(=O)NC1CC1,8.92
17,Clc1ccc(Oc2nc(Oc3ccc(Cl)cc3)nc(N3CCOCC3)n2)cc1,-7.63
18,O=C(Oc1ccccc1C(=O)N1CCOCC1)c1ccc(Br)cc1,-8.59
